Out of some 310,000 compounds screened, about 14,000 (4.5%) showed an effect of 50% or more. The effect is printed as a negative number. This is one part of the list.
Target: human ether-à-go-go-related gene (hERG) potassium channel (human, UniProt Q12809)
Assay: primary screen, population patch clamp on CHO cells stably expressing hERG
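Note: peak tail current of the secondary pulse compared with the same well before compound.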

Chain of human ether-à-go-go-related gene (hERG) potassium channel (Q12809 whole entry, looked up): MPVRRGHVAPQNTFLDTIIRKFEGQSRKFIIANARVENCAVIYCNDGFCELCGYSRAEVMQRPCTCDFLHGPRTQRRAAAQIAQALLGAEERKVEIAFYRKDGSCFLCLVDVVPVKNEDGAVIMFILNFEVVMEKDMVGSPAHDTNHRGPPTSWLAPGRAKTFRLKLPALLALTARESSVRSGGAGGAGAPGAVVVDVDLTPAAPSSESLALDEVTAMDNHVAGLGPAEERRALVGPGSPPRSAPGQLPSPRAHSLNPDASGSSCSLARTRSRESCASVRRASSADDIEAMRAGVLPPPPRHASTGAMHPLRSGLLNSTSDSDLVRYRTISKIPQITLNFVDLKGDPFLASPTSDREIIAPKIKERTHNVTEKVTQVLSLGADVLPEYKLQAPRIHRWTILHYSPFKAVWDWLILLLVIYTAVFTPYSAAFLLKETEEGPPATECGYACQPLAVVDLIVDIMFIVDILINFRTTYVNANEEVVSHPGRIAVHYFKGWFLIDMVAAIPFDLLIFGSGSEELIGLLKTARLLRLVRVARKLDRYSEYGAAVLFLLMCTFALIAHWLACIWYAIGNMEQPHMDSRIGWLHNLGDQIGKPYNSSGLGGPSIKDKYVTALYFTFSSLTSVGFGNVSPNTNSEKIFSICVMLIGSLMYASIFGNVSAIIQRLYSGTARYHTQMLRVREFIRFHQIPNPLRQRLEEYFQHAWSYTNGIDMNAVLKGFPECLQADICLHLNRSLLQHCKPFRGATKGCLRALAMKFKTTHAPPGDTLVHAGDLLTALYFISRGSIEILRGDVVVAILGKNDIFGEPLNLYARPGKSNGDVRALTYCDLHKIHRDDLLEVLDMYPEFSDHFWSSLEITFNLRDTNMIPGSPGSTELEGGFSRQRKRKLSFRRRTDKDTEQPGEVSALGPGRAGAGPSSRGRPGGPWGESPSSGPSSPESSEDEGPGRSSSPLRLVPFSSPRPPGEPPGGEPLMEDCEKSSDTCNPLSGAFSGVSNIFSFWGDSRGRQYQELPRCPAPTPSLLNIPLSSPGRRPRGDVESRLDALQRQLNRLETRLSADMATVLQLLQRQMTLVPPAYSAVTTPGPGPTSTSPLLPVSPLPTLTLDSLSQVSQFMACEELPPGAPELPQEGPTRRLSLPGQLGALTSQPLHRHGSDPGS

Structure (SMILES)	hERG current change (%, negative = inhibition) at 10uM [%]
Cc1cccc(NC(=S)N2CCN(S(C)(=O)=O)CC2)c1	-2.24
CN(C)c1ncc(CN2CCC(CO)(CCCc3ccccc3)CC2)s1	-51.3
CCOC(=O)NC(C(F)(F)F)(C(F)(F)F)P(=O)(c1ccccc1)c1ccccc1	17.7
N#Cc1c(-c2cccs2)cc(-c2ccccn2)nc1N	-2.64
Cc1cccc(Nc2nc(NCc3ccco3)c3ccccc3n2)c1.Cl	-12.2
Cc1cccc(/C(N)=N/OC(=O)CCCN2C(=O)c3ccccc3C2=O)c1	-10.7
CC1(C)CC(=O)C(C=Nc2ccncc2)=C(O)C1	13.4
NC(=O)COC(=O)c1cccc2c1-c1ccccc1C2=O	-30.9
COc1ccc(-c2sc3ccc(N4CCOCC4)cc3c2C#CC(C)(C)O)cc1	18.6
CCN(CC)Cc1c(O)ccc2c(=O)c(-c3ccccc3Cl)coc12	-22.4
COC(=O)CCC(=O)N1CCOCCOCCN(C(=O)CCC(=O)OC)CCOCCOCC1	1.93
COc1ccccc1NC(=O)CSc1ncn[nH]1	-2.97
O=C(COc1ccccc1O)Nc1ccccc1Cl	-4.32
COc1ccc(S(N)(=O)=O)cc1C(=O)NCC(C)(C)N1CCCCC1	-15.2
O=C(COc1ccc(Cl)cc1)Nc1cc(NC(=O)COc2ccc(Cl)cc2)cc(C(=O)O)c1	6.4
COc1nc(NCCc2ccc(OC)c(OC)c2)nc(NC(C)(C)CO)n1	4.03
COc1ccccc1Nc1cc2cc(Br)ccc2c(=O)[nH]1	25.2
O=C(NCCCN1CCN(c2ccccc2)CC1)Nc1ccccc1C(F)(F)F	-49.3
Cc1ccc(S(=O)(=O)N(C)C)cc1NC(=O)c1ccccc1SCC(=O)N1CCCC1	-5.32
COc1ccc([N+](=O)[O-])cc1NCc1cccnc1	-22.7
CC(NC(=O)c1ccccc1NS(=O)(=O)c1ccc(CCC(=O)O)cc1)c1ccccc1 (stereo not shown)	12.5
N#CCN1CCC(c2cc(-c3ccco3)n[nH]2)CC1	11.8

Structure (SMILES)	hERG current change (%, negative = inhibition) at 10uM [%]
CCOc1ccc(S(=O)(=O)Nc2cccc(C(=O)NCC(c3ccco3)N(C)C)c2)cc1 (stereo not shown)	-21.5
O=C(CCN1C(=O)/C(=C/c2ccc3c(c2)OCO3)SC1=S)Nc1cccc(C(=O)O)c1	17
Cn1c(SCC(=O)Nc2ccc(F)cc2)nc2c(c1=O)SCC2	-6.44
Cc1cc(Br)ccc1NC(=S)N1CCOCC1	12.5
Cc1ccc(Nc2ccc(C(N)=O)cc2[N+](=O)[O-])cc1C	8.9
CCOc1ncccc1C(=O)OCc1ccc(Cl)cc1	-20
CC1(C)CC(=O)C(C2(O)C(=O)N(Cc3ccccc3)c3ccccc32)CO1 (stereo not shown)	-6.27
O=C(/C=C\c1ccc(-c2cccc([N+](=O)[O-])c2)o1)N1CCOCC1	-10.2
CC[C@H]1OC(=O)[C@H](C)[C@@H](O[C@H]2C[C@@](C)(OC)[C@@H](O)[C@H](C)O2)[C@H](C)[C@@H](O[C@@H]2O[C@H](C)C[C@H](N(C)C)[C@H]2O)[C@](C)(O)C[C@@H](C)[C@@H]2N[C@@H](COCCOC)O[C@H]([C@H]2C)[C@]1(C)O	16.3
CN(C(=O)COC(=O)Cc1c[nH]c2ccccc12)c1c(N)n(Cc2ccccc2)c(=O)[nH]c1=O	-6.09
Cc1cc(-c2nnc(SCC(=O)c3ccc(Cl)cc3)o2)no1	-28.4
CC(C(=O)N1CCC(C(N)=O)CC1)N(c1ccc(Oc2ccccc2)cc1)S(C)(=O)=O (stereo not shown)	-1.01
Cn1c(=O)c2c(nc(SCC(=O)NCC3CCCO3)n2Cc2ccc(F)cc2)n(C)c1=O (stereo not shown)	-41.6
CCOc1ccccc1-n1c(O)c(C=NCCCN(CC)CC)c(=O)[nH]c1=O	6.17
COc1ccccc1C(C)NC(=O)c1ccc(C)o1 (stereo not shown)	2.9
CCOC(=O)C1CCCN(/C=C2\SC(=S)N(CC)C2=O)C1 (stereo not shown)	-21.8
C=CCN1C(=O)/C(=C/c2cc(C)n(-c3cccnc3)c2C)C(=O)NC1=S	16.9
COCC(=O)N/N=C/c1c(C)[nH]n(-c2ccccc2)c1=O	14
O=C1C=C(c2cccc(Br)c2)C[C@@H](c2ccc3c(c2)OCO3)C1	1.27
O/N=C/c1ccc2cccc(O)c2n1	-21.5
O=C(NCC(c1cccs1)N1CCOCC1)c1cc(=O)[nH]c2ccccc12 (stereo not shown)	1.68
Cc1cc(=O)oc2cc(NC(=O)c3cccc(Br)c3)ccc12	18.2

Structure (SMILES)	hERG current change (%, negative = inhibition) at 10uM [%]
CC1(C)CC(=O)C=C(c2ccc(F)cc2OCc2ccccc2)C1	15.1
O=C(COC(=O)/C=C/c1ccc(Cl)cc1)NC1CCCC1	-2.27
CCc1nc(Nc2ccc(OC)cc2OC)c2oc3ccccc3c2n1.Cl	19.5
COC(=O)c1cc(S(=O)(=O)NCC2CCN(Cc3ccc(F)cc3)CC2)cn1C	-19.6
CCCCCCOC(=O)C(C#N)c1nc2ccccc2nc1N1CCCCC1 (stereo not shown)	1.37
COC(=O)CNC(c1ccccc1)c1cc(Br)ccc1NS(=O)(=O)c1ccccc1 (stereo not shown)	-2.57
NS(=O)(=O)c1ccc(CCNC(=O)NC2(C(F)(F)F)Oc3ccccc3O2)cc1	6.93
Cc1noc(C)c1S(=O)(=O)N1CCN(c2ccc(Cl)cc2)CC1	-6.26
Cc1ccnc(NC(=O)Cn2c(=O)oc3ccccc32)c1	-0.0688
CCCNC(=O)c1ccccc1NC(=O)CN(c1ccccc1OCC)S(C)(=O)=O	4.75
Cc1nc(NC(=O)c2ccccc2[N+](=O)[O-])sc1C(=O)N(C)C	8.96
N#Cc1ccc(C(=O)N2CCN(C(=O)C3CCCO3)CC2)cc1 (stereo not shown)	-0.959
c1ccc2sc(NC3=NCN(C4CCCCCC4)CN3)nc2c1	-9.17
Cc1ccc(S(=O)(=O)c2cc3c(=O)n4ccccc4nc3n(CCCN3CCOCC3)c2=N)cc1C	-36.8
O=C(c1cc(COc2ccc(F)cc2F)on1)N1CC[C@@H]2CCCC[C@H]2C1	-12.1
COc1ccc(C2=COc3ccccc3C(=O)N2)cc1	-3.93
CCOC(=O)CN(C(=O)Cn1nnc2ccccc21)C(C(=O)NCCOC)c1ccccc1C (stereo not shown)	8.58
Cc1ccc(NC(=O)c2nnn(-c3cccc(C(F)(F)F)c3)c2N)cc1	-6.18
COc1ccc2[nH]c(C)c(CCNC(=S)Nc3cc(C)ccc3C)c2c1	-8.03
CC(=O)c1ccc(NC(=O)NNS(=O)(=O)c2ccc(F)cc2)cc1	12.8
COC(=O)c1nn(-c2ccc(F)cc2)ccc1=O	8.12
Cc1cc(C(=O)N/N=C/C=C/c2ccc([N+](=O)[O-])cc2)n[nH]1	-53

Structure (SMILES)	hERG current change (%, negative = inhibition) at 10uM [%]
Cc1ccc(-c2nc3cnccn3c2Nc2ccccc2)o1	-5.02
CCOC(=O)C1=C(CC)OC(N)=C(C#N)C1c1ccc(OC)c(C)c1OC (stereo not shown)	-8.95
Oc1cccc(C=NCc2ccccc2)c1	8.22
CCC(C)N(C)C(=O)c1cc2ccccc2c(-c2ccccc2Cl)n1 (stereo not shown)	-39.3
Cc1ccc(CNC(=O)COc2ccc(S(=O)(=O)N3CCCC3)cc2)cc1	24.1
O=C(N/N=C/c1ccc([N+](=O)[O-])o1)c1ccc(NS(=O)(=O)c2cccs2)cc1	-12.8
CCC1(c2ccccc2)NC(=O)N(CC(=O)Nc2cccc(S(=O)(=O)N3CCCC3)c2)C1=O (stereo not shown)	-3.81
CCOC(=O)Nc1ccc2c(c1)N(C(=O)CN)c1ccccc1CC2	-6.64
Cc1ccc(NC(=O)CN2C(=O)NC3(CCc4ccccc43)C2=O)cc1Cl (stereo not shown)	5.13
CCOC(=O)C1(Cc2cccc(F)c2)CCN(Cc2ccc(COC)o2)CC1	-23.5
CCc1ccccc1S(=O)(=O)Cc1ccc(C(=O)NCCc2ccccc2)o1	-37.5
Nc1ccc(C(=O)OCC(=O)NC(=O)c2ccccc2)cc1[N+](=O)[O-]	10.4
COc1cc(/C=C2/C(=N)N3C(c4ccccc4)=CSC3=NC2=O)ccc1OCC(=O)O	7.9
CCCOc1ccc(-c2c(C(=O)N/N=C(\C)c3cccs3)nnn2-c2nonc2N)cc1	8.59
O=C(O)CCCNc1cc(N2CCN(C(=O)c3ccco3)CC2)c2noc3c2c1C(=O)c1ccccc1-3	19
CC(=O)NC1CCC(C(=O)O)(c2ccccc2)C1 (stereo not shown)	3.43
COc1ccc(-c2csc(NC(=O)CSCc3c(C)noc3C)n2)c(OC)c1	-30.5
Cc1cc(C)cc(NC(=O)c2ccc3c(c2)CCN3S(C)(=O)=O)c1	-25.8
COc1ccc(/C=N/Nc2nc(=O)[nH]nc2C)cc1OC	-7.15

Reference: publication PMC4336329 (PLoS ONE, 2015)
